# Measured values taken from PubChem BioAssay AID1240 (Sanford-Burnham Center for Chemical Genomics, 2008).
# Among all 50,000 compounds or so, about 800 (1.6%) showed an effect of 50% or more. The list shows a part of the results.
# Target: Bcl-2-like protein 10 (Homo sapiens) (UniProt Q9HD36)
# Assay: Phenotype converters, Bcl-B/TR3 peptide binding displacement, primary biochemical FP (AID 1240);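 note: 0% = Bcl-B with tracer peptide and DMSO and 100% = tracer peptide lacking Bcl-B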
# Details: GST-Bcl-B / FITC-TR3 peptide fluorescence polarization; stronger effect = higher value; compound at 3.75 mg/L
# Chain of UniProt Q9HD36 (Q9HD36 whole entry, looked up): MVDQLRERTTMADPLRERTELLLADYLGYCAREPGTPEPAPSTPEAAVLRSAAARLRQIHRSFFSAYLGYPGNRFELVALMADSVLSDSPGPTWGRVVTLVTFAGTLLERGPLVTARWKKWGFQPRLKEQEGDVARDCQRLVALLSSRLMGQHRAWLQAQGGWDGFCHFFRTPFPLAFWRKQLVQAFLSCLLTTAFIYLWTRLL
row,SMILES,displacement [%]
1,O=C(Nc1cccc([N+](=O)[O-])c1)C1C2C3CCC(C3)C12 (stereo unspecified),5.1
2,O=C(Nc1c(C(=O)N2CCCCC2)cnn1-c1ccccc1)c1ccccc1Cl,15
3,CC(C)=C1C2C=CC1C1C(=O)N(c3cccc(Br)c3)C(=O)C21 (stereo unspecified),-0.9
4,O=C(O)C1C2CCC(C2)C1C(=O)Nc1nncs1 (stereo unspecified),0.3
5,Cc1ccc(-n2c(-c3cccc(C)c3)n[nH]c2=S)cc1,-2.1
6,O=C(N/N=C/c1cccc([N+](=O)[O-])c1)c1cc(-c2ccc(Cl)cc2)n[nH]1,-13.4
7,O=C(Cc1ccc(-c2ccccc2)cc1)NNC(=O)c1ccc(Cl)cc1,-10
8,O=[N+]([O-])c1ccc(N/C(=N/S(=O)(=O)c2ccc(Cl)cc2)c2ccccc2)cc1,12.1
9,CCCCOC(=O)c1ccc(NC(=O)COc2ccc([N+](=O)[O-])cc2)cc1,31.5
10,O=C(O)CC1S/C(=N/N=C/c2ccco2)NC1=O (stereo unspecified),-7.1
11,COc1cc(OC)cc(C(=O)N2CCN(Cc3ccc([N+](=O)[O-])cc3)CC2)c1,-5.5
12,Cc1ccc(Cc2cnc(NC(=O)C3CCCO3)s2)cc1 (stereo unspecified),16.8
13,Cc1nn(-c2ccccc2)c(C)c1/C=N/NC(=O)c1cc(-c2ccc(Cl)cc2)n[nH]1,-8
14,Cc1ccc(NC(=O)/C(C#N)=C/c2ccc(N(C)C)o2)cc1C,-130
15,CC(Oc1ccc2ccc(=O)oc2c1)C(=O)c1ccccc1 (stereo unspecified),8.3
16,CC1=NN(c2cccc(C(=O)O)c2)C(=O)/C1=C\c1ccco1,6.5
17,COc1ccc(/C=N\NC(=O)c2ccc(Br)cc2)cc1I,6.2
18,CC(C)c1ccc(CNC(=O)CSc2nc3ccccc3s2)cc1,-4.6
19,COc1ccc(OC)c(NC(=S)NC(=O)c2ccc(Cl)cc2)c1,1.6
20,CCn1c2ccccc2c2cc(CN3CCN(Cc4cc(OC)c(OC)cc4OC)CC3)ccc21,10.1
21,CN(C)c1cccc(C(=O)N2CCN(c3cccc(Cl)c3)CC2)c1,0.2
22,NNC(=O)/C(=C\c1ccco1)NC(=O)c1ccco1,-6.5
23,COc1nc(-c2ccccc2)c2cc(Br)ccc2n1,-5.2

row,SMILES,displacement [%]
1,COC(=O)c1cc(=O)[nH]c(Nc2nc3ccccc3o2)n1,9.2
2,COc1ccc(N(CC(=O)Nc2ccccc2OC)S(=O)(=O)c2ccccc2)cc1Cl,4.6
3,COc1ccc2ccccc2c1/C=N/NC(=O)Cc1nnc(N)s1,2.4
4,CC(C)(C)c1cc(C(=O)N/N=C\c2ccc(Cl)cc2)n[nH]1,-5.3
5,O=C(Nc1cccc(C(F)(F)F)c1)c1ccc(-c2cccc(Cl)c2)o1,-3.8
6,COc1ccc(NC(=O)c2ccc3c(c2)C(=O)N(c2ccccc2-c2ccccc2)C3=O)c(OC)c1,12.7
7,O=C(NC1CCCCC1)C(c1ccccc1)c1ccccc1,-2.4
8,O=C1CN(S(=O)(=O)c2cccc([N+](=O)[O-])c2)CC(=O)N1,-9.1
9,COc1ccccc1NC(=O)C1=C(C)NC(=S)NC1c1cccc(Br)c1 (stereo unspecified),-26.7
10,Cc1ccc(/C=C2\C(=O)NC(=S)N(c3ccc(Br)cc3)C2=O)o1,18.7
11,CSc1nnc2n(-c3ccccc3)c(=O)c3c4c(sc3n12)CCCCC4,-3.9
12,CC1=C(C(=O)OCC(C)C)C(c2ccc([N+](=O)[O-])cc2)NC(=O)N1 (stereo unspecified),15.2
13,C/C(NCc1ccccc1)=C(\C#N)C(=O)NCc1ccccc1,-2.4
14,O=C(Nc1ccccn1)C(O)c1ccccc1 (stereo unspecified),16.8
15,O=C(Nc1ccccc1C(=O)N1CCOCC1)c1ccc(Cl)cc1,-7.9
16,Cc1c(NC(=O)c2cc3nc(-c4ccccc4)cc(C)n3n2)c(=O)n(-c2ccccc2)n1C,18.1
17,COC(=O)c1c(-c2ccc(OC)c(OC)c2)csc1N,3.5
18,Cc1cccc(N2C(=O)/C(=C/c3ccc([N+](=O)[O-])cc3)SC2=S)c1C,-13
19,O=S(=O)(Nc1ccc(SC(F)F)cc1)c1cccc2cccnc12,1.7
20,CCOC(=O)C1=C(C)NC(=S)NC1c1cn(-c2ccccc2)nc1-c1ccccc1 (stereo unspecified),-1.6
21,S=C(Nc1ccccc1)Nc1ccc(-c2ccc(NC(=S)Nc3ccccc3)cc2)cc1,12.1
22,Cc1cccc(NC(=O)c2ccccc2[N+](=O)[O-])c1,-5
23,Clc1ccc(N2CCN(/N=C\c3ccc(Br)cc3)CC2)cc1,-1

row,SMILES,displacement [%]
1,O=C(CNc1cccc2ccccc12)c1ccc([N+](=O)[O-])cc1,11.2
2,CCC(=O)Nc1sc2c(c1C(=O)Nc1ccccc1OC)CCC2,11.9
3,Cc1ccc(N(CC(=O)Nc2ccc(C(C)C)cc2)S(C)(=O)=O)cc1Cl,2.8
4,CCCCC1CCC(c2nc(-c3ccccn3)no2)CC1 (stereo unspecified),-6
5,O=c1ccn(Cc2ccccc2)c(=O)n1Cc1ccccc1,-2.3
6,O=C(NC(=S)Nc1cccc(Cl)c1)c1ccco1,12.8
7,C=CCN1C(=O)/C(=C\c2cn(C)c3ccccc23)C(=O)NC1=S,-18.2
8,COC(=O)c1c(NC(=O)C2C3C=CC(C3)C2C(=O)O)sc2c1CCC2 (stereo unspecified),4.1
9,CN(C1CCS(=O)(=O)C1)S(=O)C12CC3CC(CC(C3)C1)C2 (stereo unspecified),-4.8
10,CS(=O)(=O)NCCCCNc1ccc(C(F)(F)F)cc1[N+](=O)[O-],-12
11,COc1cc(C2C(C(=O)/C=C/c3ccccc3)=C(O)C(=O)N2CCCCCC(=O)O)ccc1O (stereo unspecified),-2.7
12,COC(=O)c1cc(C(=O)Nc2ccc(C(C)C)cc2)cc([N+](=O)[O-])c1,1.1
13,O=C1CC(N2CCN(C3CC(=O)N(c4ccc(F)cc4)C3=O)CC2)C(=O)N1c1ccc(F)cc1 (stereo unspecified),5.1
14,Cc1cccc(NC(=O)c2ccccc2NC(=O)/C=C\c2ccco2)c1C,11.4
15,NS(=O)(=O)c1ccc(CNC(=O)Cc2ccccc2[N+](=O)[O-])cc1,9.4
16,O=C(COc1ccc(F)cc1)N1CCN(C(=O)COc2ccc(F)cc2)CC1,3.8
17,O=C1NC(=S)S/C1=C\c1ccccc1C(=O)O,-0.5
18,O=C(/C=C/c1ccccc1Cl)c1ccc(NC(=O)c2cccs2)cc1,-2.9
19,C/C(CCc1oc2ccc(C)cc2c1-c1ccc(C)o1)=N\O,4.4
20,O=C(Nc1cccc(C(F)(F)F)c1)c1ccccc1C(F)(F)F,9.8
21,CCOc1cccc2c1N(C(=O)c1cccc(F)c1)C(C)(C)c1ssc(=S)c1-2,-4.9
22,CC(NC(=O)CSc1nnc(-c2ccco2)n1-c1ccccc1)c1ccccc1 (stereo unspecified),-10.4
23,Cc1cc(=O)oc2cc(OCCO)ccc12,0.4

row,SMILES,displacement [%]
1,CC1=C(C(=O)OCc2ccccc2)C(c2ccccc2F)NC(=O)N1 (stereo unspecified),11
2,O=C(c1ccc(CN2CCOCC2)cc1)N1CCCC1,4.3
3,COc1cc(CN2CCN(C3CCCC(C)C3)CC2)cc(OC)c1OC (stereo unspecified),3.1
4,COc1ccc(-n2cnc3cc(NC(=O)c4ccccc4)ccc32)cc1,2.7
5,O=S(=O)(NCc1ccccc1)c1cccc2cccnc12,-5.4
6,O=C1NC(=O)C(=Cc2ccc(-c3cccc(Br)c3)o2)C(=O)N1,81.1
7,CCc1cc(=O)oc2cc(C)cc(OC(C)C(C)=O)c12 (stereo unspecified),11
8,COC(=O)c1cccc(NC(=O)COc2ccc(Br)c(C)c2)c1,-3.4
9,COc1ccc(-c2nnc(-c3cccc(C)c3)o2)cc1,9
10,O=c1nc(SCc2ccccc2Cl)sc2ccccc12,9.1
11,N#C/C(=C/c1ccccc1Cl)C(=O)Nc1cccc(Br)c1,-4.9
12,CCNC(=O)CC1S/C(=N\N=C(/C)c2ccc([N+](=O)[O-])cc2)NC1=O (stereo unspecified),3.5
13,Nc1nonc1C(=O)N/N=C/c1cccc(Br)c1,5.8
14,C=CCNC(=O)C(=O)N/N=C/c1ccccc1O,-2.4
15,COc1ccc(NC2=CC(=O)CC(c3ccco3)C2)cc1OC (stereo unspecified),3.6
16,O=C1NC(=O)c2c1cc1ccccc1c2-c1ccccc1,11.2
17,CCCCOc1ccc(-c2nc(-c3ccccc3Cl)no2)cc1,-1.5
18,O=C(COC(=O)CSCC(=O)Nc1cccc2ccccc12)Nc1ccc(Br)cn1,-25.3
19,COc1ccc(CCNC(=O)COc2ccccc2OC)cc1OC,2.2
20,C=CCNCC1OCc2ccccc2CO1,9.4
21,CC1(C)CC1(C#Cc1ccccc1)C(=O)O (stereo unspecified),11.9
22,O=C(CCc1ccccc1)Nc1ccc(Cl)cc1C(F)(F)F,1.1
23,O=C1c2ccccc2C(=O)N1CCSc1nnc(-c2ccncc2)n1-c1ccccc1,2.5

row,SMILES,displacement [%]
1,COc1ccc(N=C2NC(=O)CS2)cc1,-3.4
2,CCOC(=O)CCc1c(C)nc2cc(-c3ccccc3)[nH]n2c1=O,-4.2
3,CCCCOP(=O)(C(C)C)C(C)C,-2.3
4,COc1cc(C2Nc3ccc4ccccc4c3C3=C2C(=O)CC(C)(C)C3)ccc1OCC#N (stereo unspecified),-4
5,COc1ccc(Cl)cc1NC(=O)C1=C(C)NC(=S)NC1c1cccc([N+](=O)[O-])c1 (stereo unspecified),12.3
6,COc1ccccc1/C=C1/SC(=O)N(CNc2cccc([N+](=O)[O-])c2)C1=O,8.2
7,Cc1ccc(NCCC(=O)c2cccs2)cc1,10.1
8,CCC(=O)Oc1ccc2c(C)cc(=O)oc2c1I,-16.5
9,CC(c1ccccc1)N1C(=O)c2ccccc2C1(O)Cc1ccccc1 (stereo unspecified),-4
10,Cc1ccc(OCc2nnc(NC(=O)Nc3ccc(Cl)c(Cl)c3)s2)cc1,13
11,O=C1C2C3C=CC(CO)(O3)C2C(=O)N1c1cc(C(F)(F)F)ccc1Cl (stereo unspecified),5.8
12,O=C(c1ccc(Br)o1)N1CCc2ccccc21,10.9
13,NC(=O)c1ccccc1NC(=O)c1cccc(I)c1,-7.2
14,Cc1ccc(C(=O)NC(NC(=S)Nc2ccccc2Br)C(Cl)(Cl)Cl)cc1 (stereo unspecified),-12.1
15,O=C1CC(N(Cc2ccc3c(c2)OCO3)C(=S)Nc2ccccc2)C(=O)N1c1ccc(F)cc1 (stereo unspecified),-9.6
16,CCN(CC)C(=O)c1sc(NC(=O)C(C)(C)C)c(C(=O)OC)c1C,11.4
17,COc1ccc(C2Nc3ccccc3C(=O)N2c2ccc(Cl)cc2)c(OC)c1 (stereo unspecified),1.9
18,Nc1c(Cl)cc2c(c1Oc1ccccc1)C(=O)c1ccccc1C2=O,8.6
19,CC(C)(C)c1ccc(S(=O)(=O)Nc2ccc(Cl)c(C(N)=O)c2)cc1,-5
